Data as given in a collection of fitness landscapes (doi:10.1126/science.1257360).
Some of the results follow.

B1: PhoQ; a variant is named by its letters at X, in order, P23837 (parent)
chain: MKKLLRLFFPLSLRVRFLLATAAVVLVLSLAYGMVALIGYSVSFDKTTFRLLRGESNLFYTLAKWENNKLHVELPENIDKQSPTMTLIYDENGQLLWAQRDVPWLMKMIQPDWLKSNGFHEIEADVNDTSLLLSGDHSIQQQLQEVREDDDDAEMTHSVAVNVYPATSRMPKLTIVVVDTIPVELKSSYMVWSWFIYVLSANLLLVIPLLWVAAWWSLRPIEALAKEVRELEEHNRELLNPATTRELTSLVRNLNRLLKSERERYDKYRTTLTDLTHSLKTPLXXLQXXLRSLRSEKMSVSDAEPVMLEQISRISQQIGYYLHRASMRGGTLLSRELHPVAPLLDNLTSALNKVYQRKGVNISLDISPEISFVGEQNDFVEVMGNVLDNACKYCLEFVEISARQTDEHLYIVVEDDGPGIPLSKREVIFDRGQRVDTLRPGQGVGLAVAREITEQYEGKIVAGESMLGGARMEVIFGRQHSAPKDE

Variants of: B1
Assay: enrichment ratio after two sorts for PhoP signalling (ratio (wild type AVST 3.29)); higher = more functional
Conditions: with PhoP (E. coli)

NHLE and QQEV cannot be ordered by enrichment ratio: ≤ 0.25 for the first, ≤ 0.25 for the second.

FGVN and MLSR cannot be ordered by enrichment ratio: ≤ 0.25 for the first, ≤ 0.25 for the second.

HAKG and INIV cannot be ordered by enrichment ratio: ≤ 0.25 for the first, ≤ 0.25 for the second.

GRND and SYQC cannot be ordered by enrichment ratio: ≤ 0.25 for the first, ≤ 0.25 for the second.

First: STLM
Second: WAYP
The enrichment ratio of the first is higher: 11.2 for the first, ≤ 0.25 for the second.

RRAD and REGL cannot be ordered by enrichment ratio: ≤ 0.25 for the first, ≤ 0.25 for the second.

REDL and KDHV cannot be ordered by enrichment ratio: ≤ 0.25 for the first, ≤ 0.25 for the second.

WFQS and TLYC cannot be ordered by enrichment ratio: ≤ 0.25 for the first, ≤ 0.25 for the second.

PEPN and HNNF cannot be ordered by enrichment ratio: ≤ 0.25 for the first, ≤ 0.25 for the second.

RVKQ and YEAN cannot be ordered by enrichment ratio: ≤ 0.25 for the first, ≤ 0.25 for the second.

DPWC and SFSS cannot be ordered by enrichment ratio: ≤ 0.25 for the first, ≤ 0.25 for the second.

KAGP and IDGW cannot be ordered by enrichment ratio: ≤ 0.25 for the first, ≤ 0.25 for the second.

ENMD and FSFW cannot be ordered by enrichment ratio: ≤ 0.25 for the first, ≤ 0.25 for the second.

TCVF and TFYD cannot be ordered by enrichment ratio: ≤ 0.25 for the first, ≤ 0.25 for the second.

SAHE and DVNQ cannot be ordered by enrichment ratio: ≤ 0.25 for the first, ≤ 0.25 for the second.

Going from TGAC to MDQC, the enrichment ratio falls from 11.4 to ≤ 0.25.

NANN and FTGG cannot be ordered by enrichment ratio: ≤ 0.25 for the first, ≤ 0.25 for the second.

YGWK and EDEA cannot be ordered by enrichment ratio: ≤ 0.25 for the first, ≤ 0.25 for the second.

KAHC and CAHL cannot be ordered by enrichment ratio: ≤ 0.25 for the first, ≤ 0.25 for the second.

KMRV and AFEI cannot be ordered by enrichment ratio: ≤ 0.25 for the first, ≤ 0.25 for the second.

SERA and LYWT cannot be ordered by enrichment ratio: ≤ 0.25 for the first, ≤ 0.25 for the second.

GTTD and NYHN cannot be ordered by enrichment ratio: ≤ 0.25 for the first, ≤ 0.25 for the second.

PNGQ and HFNV cannot be ordered by enrichment ratio: ≤ 0.25 for the first, ≤ 0.25 for the second.

VFKE and KEDH cannot be ordered by enrichment ratio: ≤ 0.25 for the first, ≤ 0.25 for the second.

YRHP and AQDV cannot be ordered by enrichment ratio: ≤ 0.25 for the first, ≤ 0.25 for the second.

GSRG and THAA cannot be ordered by enrichment ratio: ≤ 0.25 for the first, ≤ 0.25 for the second.

Going from TCTF to VQHG, the enrichment ratio falls from 12.4 to ≤ 0.25.

RGAM and GTYR cannot be ordered by enrichment ratio: ≤ 0.25 for the first, ≤ 0.25 for the second.

YTAH and PGGG cannot be ordered by enrichment ratio: ≤ 0.25 for the first, ≤ 0.25 for the second.

Compared with PGWN, AAMG is higher in enrichment ratio: ≤ 0.25 for the first, 9.84 for the second.

NAQP and YAVR cannot be ordered by enrichment ratio: ≤ 0.25 for the first, ≤ 0.25 for the second.

FIRW and NLTS cannot be ordered by enrichment ratio: ≤ 0.25 for the first, ≤ 0.25 for the second.

DNQW and WDNW cannot be ordered by enrichment ratio: ≤ 0.25 for the first, ≤ 0.25 for the second.

YEHT and KDGL cannot be ordered by enrichment ratio: ≤ 0.25 for the first, ≤ 0.25 for the second.

FCVW and HQCP cannot be ordered by enrichment ratio: ≤ 0.25 for the first, ≤ 0.25 for the second.

QPVR and PTII cannot be ordered by enrichment ratio: ≤ 0.25 for the first, ≤ 0.25 for the second.

QNKW and QSNT cannot be ordered by enrichment ratio: ≤ 0.25 for the first, ≤ 0.25 for the second.

NNRC and GNKW cannot be ordered by enrichment ratio: ≤ 0.25 for the first, ≤ 0.25 for the second.

WMFI and ERVV cannot be ordered by enrichment ratio: ≤ 0.25 for the first, ≤ 0.25 for the second.

First: FQTG
Second: ISTI
The enrichment ratio of the first is lower: ≤ 0.25 for the first, 0.31 for the second.

RAVA and PIVE cannot be ordered by enrichment ratio: ≤ 0.25 for the first, ≤ 0.25 for the second.

DGPK and SLKY cannot be ordered by enrichment ratio: ≤ 0.25 for the first, ≤ 0.25 for the second.

YQNG and RHRM cannot be ordered by enrichment ratio: ≤ 0.25 for the first, ≤ 0.25 for the second.

Compared with HTSE, YSRF is lower in enrichment ratio: 4.07 for the first, ≤ 0.25 for the second.

SVRD and VPRQ cannot be ordered by enrichment ratio: ≤ 0.25 for the first, ≤ 0.25 for the second.

First: WPTM
Second: TTSM
The enrichment ratio of the first is lower: ≤ 0.25 for the first, 14.8 for the second.

RLAV and WMKG cannot be ordered by enrichment ratio: ≤ 0.25 for the first, ≤ 0.25 for the second.

FWDI and TGSR cannot be ordered by enrichment ratio: ≤ 0.25 for the first, ≤ 0.25 for the second.

YDKP and QERR cannot be ordered by enrichment ratio: ≤ 0.25 for the first, ≤ 0.25 for the second.

VQSP and KINN cannot be ordered by enrichment ratio: ≤ 0.25 for the first, ≤ 0.25 for the second.

NVCS and WYSK cannot be ordered by enrichment ratio: ≤ 0.25 for the first, ≤ 0.25 for the second.

MACG and PQQC cannot be ordered by enrichment ratio: ≤ 0.25 for the first, ≤ 0.25 for the second.

LWSS and NKHY cannot be ordered by enrichment ratio: ≤ 0.25 for the first, ≤ 0.25 for the second.

HNHI and FWEM cannot be ordered by enrichment ratio: ≤ 0.25 for the first, ≤ 0.25 for the second.

Compared with ALMH, TDWT is higher in enrichment ratio: 2.13 for the first, 25.1 for the second.

DTFN and WEPI cannot be ordered by enrichment ratio: ≤ 0.25 for the first, ≤ 0.25 for the second.

RTTG and SVIW cannot be ordered by enrichment ratio: ≤ 0.25 for the first, ≤ 0.25 for the second.

IAAY and DWLS cannot be ordered by enrichment ratio: ≤ 0.25 for the first, ≤ 0.25 for the second.

RQHY and RTGI cannot be ordered by enrichment ratio: ≤ 0.25 for the first, ≤ 0.25 for the second.

MRRR and PRMF cannot be ordered by enrichment ratio: ≤ 0.25 for the first, ≤ 0.25 for the second.

MPCR and IAWR cannot be ordered by enrichment ratio: ≤ 0.25 for the first, ≤ 0.25 for the second.

NLQG and KFFA cannot be ordered by enrichment ratio: ≤ 0.25 for the first, ≤ 0.25 for the second.

GWTA and IKID cannot be ordered by enrichment ratio: ≤ 0.25 for the first, ≤ 0.25 for the second.

First: TCQN
Second: YKCC
The enrichment ratio of the first is higher: 23 for the first, ≤ 0.25 for the second.

HNTT and YMVM cannot be ordered by enrichment ratio: ≤ 0.25 for the first, ≤ 0.25 for the second.

RVHA and SQHG cannot be ordered by enrichment ratio: ≤ 0.25 for the first, ≤ 0.25 for the second.

PYNA and WHLW cannot be ordered by enrichment ratio: ≤ 0.25 for the first, ≤ 0.25 for the second.

SFAE and LEHM cannot be ordered by enrichment ratio: ≤ 0.25 for the first, ≤ 0.25 for the second.

ICCE and WGFV cannot be ordered by enrichment ratio: ≤ 0.25 for the first, ≤ 0.25 for the second.

MMMM and KNHR cannot be ordered by enrichment ratio: ≤ 0.25 for the first, ≤ 0.25 for the second.

Compared with SPCT, SHLM is higher in enrichment ratio: ≤ 0.25 for the first, 19.3 for the second.

FDDY and YHFE cannot be ordered by enrichment ratio: ≤ 0.25 for the first, ≤ 0.25 for the second.

EGHS and NNHV cannot be ordered by enrichment ratio: ≤ 0.25 for the first, ≤ 0.25 for the second.

QMFM and LTSD cannot be ordered by enrichment ratio: ≤ 0.25 for the first, ≤ 0.25 for the second.

EDLH and RDTY cannot be ordered by enrichment ratio: ≤ 0.25 for the first, ≤ 0.25 for the second.

YLNH and KPGT cannot be ordered by enrichment ratio: ≤ 0.25 for the first, ≤ 0.25 for the second.

GSEK and NNGW cannot be ordered by enrichment ratio: ≤ 0.25 for the first, ≤ 0.25 for the second.

PLWY and FCLP cannot be ordered by enrichment ratio: ≤ 0.25 for the first, ≤ 0.25 for the second.

KPVL and FFPP cannot be ordered by enrichment ratio: ≤ 0.25 for the first, ≤ 0.25 for the second.

TRNI and YWTM cannot be ordered by enrichment ratio: ≤ 0.25 for the first, ≤ 0.25 for the second.

WCAH and WMLQ cannot be ordered by enrichment ratio: ≤ 0.25 for the first, ≤ 0.25 for the second.

VSPT and TTPE cannot be ordered by enrichment ratio: ≤ 0.25 for the first, ≤ 0.25 for the second.

RLCK and KNFT cannot be ordered by enrichment ratio: ≤ 0.25 for the first, ≤ 0.25 for the second.

GFGL and PWLQ cannot be ordered by enrichment ratio: ≤ 0.25 for the first, ≤ 0.25 for the second.

RPWH and DNPI cannot be ordered by enrichment ratio: ≤ 0.25 for the first, ≤ 0.25 for the second.

AAVP and YGFC cannot be ordered by enrichment ratio: ≤ 0.25 for the first, ≤ 0.25 for the second.

STWV and GAFN cannot be ordered by enrichment ratio: ≤ 0.25 for the first, ≤ 0.25 for the second.

GMAT and RWYW cannot be ordered by enrichment ratio: ≤ 0.25 for the first, ≤ 0.25 for the second.

First: LFNS
Second: FTTL
The enrichment ratio of the first is lower: ≤ 0.25 for the first, 3.67 for the second.

EHLD and LGTE cannot be ordered by enrichment ratio: ≤ 0.25 for the first, ≤ 0.25 for the second.

DNEV and LYKF cannot be ordered by enrichment ratio: ≤ 0.25 for the first, ≤ 0.25 for the second.

First: DTNV
Second: GIVR
The enrichment ratio of the first is lower: ≤ 0.25 for the first, 3.19 for the second.

KGKP and LSDM cannot be ordered by enrichment ratio: ≤ 0.25 for the first, ≤ 0.25 for the second.

DSLT and ICDH cannot be ordered by enrichment ratio: ≤ 0.25 for the first, ≤ 0.25 for the second.

KAFS and RDGD cannot be ordered by enrichment ratio: ≤ 0.25 for the first, ≤ 0.25 for the second.

SLRE and FMPN cannot be ordered by enrichment ratio: ≤ 0.25 for the first, ≤ 0.25 for the second.

Compared with DQDW, TATS is higher in enrichment ratio: ≤ 0.25 for the first, 19.8 for the second.

With WTQR the enrichment ratio was ≤ 0.25.
